Legend:
[1] = biological target: CD137-muFc; assay: indirect ELISA, plate coated with 5 ug/mL CD137-muFc; preparation 14 at T0 (the reference itself)
[2] = biological target: CD137-muFc; assay: indirect ELISA, plate coated with 5 ug/mL CD137-muFc; preparation 14 at T0
[3] = biological target: CD137-muFc; assay: indirect ELISA, plate coated with 5 ug/mL CD137-muFc; preparation 13 after 4 weeks of storage
[4] = biological target: CD137-muFc; assay: indirect ELISA, plate coated with 5 ug/mL CD137-muFc; preparation 14 after 4 weeks of storage, against T0
[5] = biological target: CD137-muFc; assay: indirect ELISA, plate coated with 5 ug/mL CD137-muFc; preparation 14 after 4 weeks of storage
[6] = biological target: CD137-muFc; assay: indirect ELISA, plate coated with 5 ug/mL CD137-muFc; preparation 13 at T0 (the reference itself)
[7] = biological target: CD137-muFc; assay: indirect ELISA, plate coated with 5 ug/mL CD137-muFc; preparation 13 after 4 weeks of storage, against T0
[8] = biological target: CD137-muFc; assay: indirect ELISA, plate coated with 5 ug/mL CD137-muFc; preparation 13 at T0

Binding activity (relative, EC50 at T0 against EC50 of the sample) [1]: 100%
EC50 [2]: 0.0194 µg/mL
EC50 [3]: 0.0229 µg/mL
Binding activity (relative, EC50 at T0 against EC50 of the sample) [4]: 79.9%
EC50 [5]: 0.0243 µg/mL
Binding activity (relative, EC50 at T0 against EC50 of the sample) [6]: 100%
Binding activity (relative, EC50 at T0 against EC50 of the sample) [7]: 74.9%
EC50 [8]: 0.0171 µg/mL
B1: C2-7BN78K-Fc (Fc fusion)
scFv: EVQLVESGGGLVKPGGSLRLSCAASGFTVSDYYMNWIRQAPGKGLEWVSYISSSASGSTIYYADSVKGRFTISRDNAKNSLYLQMNSLRTEDTAIYYCARVVPAGSGWRWFDPWGQGTLVTVSSGGGGSGGGGSGGGGSQSVLIQPPSVSGSPGQSVTISCTGISSDVGAYDYVSWYQQHPGKVPKLMIYEVSKRPSGVPDRFSGSKSGDTASLTISGLQAEDEADYYCSSHAGSNNFYVFGTGTKLTVLGGGGS[… human IgG4 Fc with S228P (EU numbers) …]
